Laboratory results: PubChem BioAssay (NCI)
“And” between values parts separate entries of the source, which are not always exact repeats. Equal values may be shown once.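 In this assay, cells in 96-well plates receive the compound at five concentrations for 48 hours. Endpoints are linearly interpolated between the surrounding concentrations. GI50 is the concentration that inhibits growth by half. TGI: concentration producing complete growth inhibition.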 Peptide text beside a SMILES is read from it.

Each compound was assayed on NCI-H322M lung (assay: inhibition of tumour cell growth, NCI panel, 48 h).
With `COC(=O)[C@@]12OC[C@]34C([C@@H](O)C1O)[C@@]1(C)CC(=O)C(OC(=O)CC(C)C(F)(F)F)=C(C)C1C[C@H]3OC(=O)[C@H](O)[C@H]42` (stereo partly drawn) the TGI was over 62.5 µM.
Work on `O=C(c1ccc(Cl)cc1)N(C(=O)N1CCCCC1)c1ccccc1` yielded a TGI of over 100 µM.
`O=C(c1cccs1)c1c(C(F)(F)F)n([O-])c2cc(Cl)c(Cl)cc2[n+]1=O` showed a GI50 of 1.9 µM and a TGI of 3.38 µM.
`O=C1CC(c2cccc(Cl)c2)Nc2ccc(N3CCCC3)cc21` (stereo not drawn) gave a GI50 of 0.0915 µM and a TGI of over 100 µM.
With `CC(N)(CC(O)(C(F)(F)Cl)C(F)(F)Cl)C(=O)O` (stereo not drawn) the TGI was over 10 µM.
Compound `O=C(c1ccccc1)[C@H]1Nc2ccc(Cl)cc2[C@H]2CCC[C@@H]12` has a TGI of over 100 µM.
Work on `COC(=O)/C=C(\C(=O)OC)c1cc(C)c2cc(C(C)C)ccc(C)c1-2` yielded a TGI of over 100 µM.
For `CC[C@H](C)[C@H](NC(=O)[C@H]1CCCCN1C)C(=O)N(C)[C@H](C[C@@H](OC(C)=O)c1nc(C(=O)NC23CC(C(=O)OC)(C2)C3)cs1)C(C)C`, the GI50 was 0.00476 µM and 0.026 µM and the TGI was over 32.5 µM.
Work on `S=C1SCN(Cc2ccccc2)CN1Cc1ccco1` yielded a GI50 of 27.6 µM and a TGI of over 100 µM.
For `CSc1nc2nc(-c3ccccc3)c(C)c-2c2n1C(C)C(=O)N2` (stereo not drawn), the GI50 was 69 µM and the TGI was over 100 µM.
In the case of `CC(=O)c1ccc(Nc2c3c(nc4ccccc24)CCCC3)cc1`, the TGI is reported as over 100 µM.
`Cc1ccc(S(=O)(=O)OC2CC(C(C)(C)C)CCC2c2ccccc2)cc1` (stereo not drawn) gave a TGI of over 100 µM.
`O=C(Nn1c(-c2ccccc2)nc2ccccc2c1=O)c1ccc(Cl)cc1` gave a TGI of over 100 µM.
Work on `Cc1ccc(S[C@@](C=O)(NC(=O)OCc2ccccc2)C(F)(F)F)cc1` yielded a TGI of over 100 µM.
For `NCCOc1cccc(C2(N3CCCCC3)CCCCC2)c1`, the TGI was over 100 µM.
`CN1C(=O)CC(=O)N1/C(=C/c1ccccc1)c1ccccc1` gave a TGI of over 100 µM.
Work on `CC(=O)c1ccc(N=NN2CCCC2)cc1` yielded a TGI of over 100 µM.
With `CCN1/C(=C/C#C/C(C)=C\c2sc3ccc(Cl)cc3[n+]2CC)Sc2ccc(Cl)cc21` the TGI was 10.4 µM.
Work on `CC(=O)Oc1ccc(C2=Cc3ccc(OC(C)=O)cc3OC2C)cc1` (stereo not drawn) yielded a GI50 of 4.56 µM and a TGI of 24.3 µM.
With `Cc1c(C)c2c(c(N)c1C#N)C(=O)N(Cc1ccc(S(N)(=O)=O)cc1)C2=O` the TGI was over 100 µM.
`CSc1nncc(-c2cc3c(c(SC)n2)CCCC3)n1` gave a TGI of over 100 µM.
With `CN1CCOC(C(NC(=O)c2ccccc2)c2ccccc2)C1=O` (stereo not drawn) the TGI was over 100 µM.
Compound `O=C1NC(=O)C2C(=O)NC(=O)C1C2Cc1ccco1` (stereo not drawn) has a TGI of over 100 µM.
`CCOC(=O)c1c(NC(=O)c2ccccc2)c(C#N)c2n1CCCCC2` was tested, and the TGI was over 100 µM.
With `CC(=O)OCC(=O)[C@@]1(O)CC[C@H]2[C@@H]3C[C@H](C)C4=CC(=O)C=C[C@]4(C)[C@@]3(F)[C@@H](O)C[C@@]21C` the TGI was over 100 µM.
With `N#Cc1sc2nc3ccccc3n2c1N` the TGI was over 100 µM.
`O=c1c(-c2ccccc2)nnc2n(Cc3ccccc3)c3ccccc3n12` was tested, and the TGI was over 100 µM.
In the case of `CCc1cccc(CC)c1NC(=O)/C(Cl)=C(/Cl)C(=O)O`, the TGI is reported as over 100 µM.
In the case of `COc1cc(OC)c(OC)cc1/C=C/c1nc2ccccc2s1`, the TGI is reported as over 100 µM.
For `CCN1CCC(O)(c2ccc([N+](=O)[O-])cc2)C(C(=O)c2ccc([N+](=O)[O-])cc2)C1` (stereo not drawn), the TGI was over 100 µM.
With `Cc1ccccc1C(CCCO)C(=O)O` (stereo not drawn) the TGI was over 100 µM.
For `CSCCC(C(=O)O)N(C)C` (stereo not drawn), the TGI was over 100 µM.
Compound `CCSCC1CC(O)(c2ccccc2)C(c2ccccc2)C(c2ccc(F)cc2)O1` (stereo not drawn) has a GI50 of 2.27 µM and a TGI of 6.52 µM.
`Cc1cc(Br)c(NC(=O)c2c(-c3c(Cl)cccc3Cl)noc2C)c(Br)c1` gave a GI50 of over 100 µM and a TGI of over 100 µM.
`NNC(=O)C(=O)NN=C(C(Cl)(Cl)CO)C(Cl)(Cl)CO` showed a TGI of over 100 µM.
In the case of `O=C1c2ccccc2N2OC3(N4CCOCC4)CCCC3C12c1ccccc1` (stereo not drawn), the TGI is reported as over 100 µM.
`COc1cc(C(=O)/C=C/c2cccc(Nc3ccnc4cc(Cl)ccc34)c2)cc(OC)c1OC` was tested, and the GI50 was 1.52 µM and the TGI was 3.28 µM.
In the case of `COc1ccc(C(O)c2cc3c(N)c(C(=O)Nc4cccc5ccccc45)sc3nc2C)cc1` (stereo not drawn), the GI50 is reported as 0.589 µM and the TGI is reported as over 100 µM.
`CCN(/C=C1/C(=O)C(c2ccccc2)N(c2ccccc2)C1=O)CC` (stereo not drawn) was tested, and the TGI was over 10 µM.
`Cc1nc2sc3cccc(Cl)c3n2c(=O)c1N=Nc1ccc(Cl)cc1` gave a TGI of over 100 µM.
Compound `CCOC(=O)c1c2c(n(-c3ccc(C)cc3)c1C)-c1ccccc1C(=O)C2(C(=O)OCC)C(=O)OCC` has a TGI of over 100 µM.
With `COc1ccc(/C=C2\CCC/C(=C\c3ccc(OC)c(OC)c3)C2=O)cc1OC` the GI50 was 2.88 µM and the TGI was over 32.5 µM.
With `c1ccc(COC[C@H]2O[C@@H](c3ccccc3)C[C@@H](OCc3ccccc3)C2OCc2ccccc2)cc1` (stereo partly drawn) the TGI was over 10 µM.
With `CCN(CC)CCNc1ccc([N+](=O)[O-])c2nc3ccc(OC)cc3c(NCCN(CC)CC)c12` the TGI was 3.85 µM.
For `COC(CN(C)C(=S)Nc1cccc2ccccc12)OC`, the TGI was over 10 µM.
`CC(C)C[C@@H]1NC(=O)[C@@H]2CCCN2C(=O)[C@@H]2CCCN2C(=O)[C@H](CC(C)C)NC(=O)[C@H](CO)NC(=O)[C@H](CCCCN)NC(=O)[C@H]([C@H](C)O)NC(=O)[C@@H]2CSSC[C@@H](NC1=O)C(=O)N[C@@H](Cc1ccccc1)C(=O)N1CCC[C@H]1C(=O)N[C@@H](CC(=O)O)C(=O)NCC(=O)N[C@@H](CCCN=C(N)N)C(=O)N2` (HELM PEPTIDE1{C.[C[C@H](O)[C@H](N[*:1])C(=O)[*:2]].K.S.L.P.P.L.[dC].F.P.D.G.R}$PEPTIDE1,PEPTIDE1,1:R3-9:R3|PEPTIDE1,PEPTIDE1,1:R1-14:R2$$$V2.0) showed a GI50 of over 50 µM and a TGI of over 50 µM.
In the case of `O=[N+]([O-])c1ccc(/C=N/Nc2nc3ccccc3[nH]2)o1`, the TGI is reported as 63.6 µM.
`CCCCCC/C=C\CCCCCCCCC(=O)c1cccc(OC)c1OC` showed a TGI of over 100 µM.
With `COc1ccc(Nc2cnc3cc(N)cc(N)c3n2)cc1` the GI50 was 25.7 µM and the TGI was 94.1 µM.
Work on `C[C@@H]1CC[C@]2(C)C3(C)CC[C@]2(OC3=O)[C@@]12CC(c1ccoc1)OC2=O` (stereo partly drawn) yielded a TGI of over 100 µM.
`C=C(C#N)C(=O)OCC(CC)CC.C=C(C#N)C(=O)OCC(CC)CC.CS(C)=O.CS(C)=O.Nc1c(N=Nc2ccc(-c3ccc(N=Nc4cc(S(=O)(=O)[O-])c5ccccc5c4N)cc3)cc2)cc(S(=O)(=O)[O-])c2ccccc12.[Pt+2]` was tested, and the GI50 was 69.1 µM and the TGI was over 100 µM.
`N#Cc1c(NC(=O)C(F)(F)F)sc2c3c(=O)c4ccccc4c(=O)c=3oc3ccccc3c12` showed a TGI of 42.4 µM.
For `CCCCCCCCCCCC[C@@H](O)[C@H]1CC[C@H]([C@H](O)CC[C@H](O)[C@@H]2CC[C@@H](CCCCCCCC3=C[C@H](C)OC3=O)O2)O1`, the GI50 was 9.01 µM and the TGI was over 50 µM.
In the case of `CCC(c1ccccc1)c1noc(CCN(CC)CC)n1` (stereo not drawn), the GI50 is reported as 37.3 µM and the TGI is reported as over 100 µM.
`C=CCON(C(=O)OC(C)(C)C)C(C)(C)C` was tested, and the TGI was over 100 µM.
Work on `CC(=O)Oc1c(C(=O)[O-])cc(C(C)C)cc1C(C)C.CC(=O)Oc1c(C(=O)[O-])cc(C(C)C)cc1C(C)C.CC(=O)Oc1c(C(=O)[O-])cc(C(C)C)cc1C(C)C.CC(=O)Oc1c(C(=O)[O-])cc(C(C)C)cc1C(C)C.[Cu+2].[Cu+2]` yielded a GI50 of 19.9 µM and a TGI of 39.9 µM.
For `CCCCS(=O)c1sc2nc(-c3cccs3)cc(-c3ccccc3)c2c1N` (stereo not drawn), the GI50 was 25.2 µM and the TGI was over 100 µM.
Work on `Cc1ccc(OCC2OC(n3cnc4c(Cl)nc(Nc5cc(Cl)cc(Cl)c5)nc43)CC2Oc2ccc(C)cc2)cc1` (stereo not drawn) yielded a TGI of over 100 µM.
For `COc1ccc(/C=C2\C(=O)N(NC(C)=O)c3ccccc32)cc1`, the TGI was over 100 µM.
Compound `COc1ccccc1C1c2cc3c(cc2OC2(OC)COC(=O)C12)OCO3` (stereo not drawn) has a TGI of over 92.8 µM.
In the case of `ClCCOCCn1cnc2c(Cl)nc(Cl)nc21`, the GI50 is reported as 13.2 µM and the TGI is reported as 26.3 µM.
`Nc1nc(=S)c2ncn(C3OC(COP(=O)(O)O)C(O)C3O)c2[nH]1` (stereo not drawn) gave a GI50 of 5.31 µM and a TGI of over 100 µM.
In the case of `C[C@H](C(=O)O)C(=O)NC(=O)N(Cc1ccccc1)N=O`, the TGI is reported as over 100 µM.
`O=C1C2C3C=CC(C2C(=O)N1CO)C1C2C(=O)N(CO)C(=O)C2C31` (stereo not drawn) showed a TGI of over 100 µM.
`CC(=O)NC1C(OCC(=O)NCCNc2ccc([N+](=O)[O-])c3[nH]c4ccccc4c(=O)c23)C(O)C(CO)OC1(C)OCc1ccccc1` (stereo not drawn) showed a TGI of over 100 µM.
In the case of `C1CSCCSCCCS[C@@H]2CCCCC2SC1` (stereo partly drawn), the TGI is reported as over 100 µM.
In the case of `Cc1noc(NC(=O)Nc2ccccc2F)c1C#N`, the TGI is reported as over 46.1 µM.
`CC(C)Cc1ccc(C(C)/C=C2\CCC(CN(C)C)C2=O)cc1` (stereo not drawn) was tested, and the TGI was 37.4 µM.
With `COc1ccc2nc3c(c(N)c2c1)C1CCC3C1(C)C` (stereo not drawn) the TGI was over 100 µM.
Compound `COC(=O)[C@H](Cc1ccccc1)NC(=O)c1ccc(CNC(=O)/C=C/c2csc(-c3ccccc3)n2)cc1` has a TGI of 47.1 µM.
`Fc1ccc(NC(c2ccc(F)cc2)C2CCN(CCCCc3ccccc3)CC2)cc1` (stereo not drawn) showed a GI50 of 1.83 µM and a TGI of 4.51 µM.
With `c1cc(-c2ccc(-c3ccsc3)s2)cs1` the TGI was over 100 µM.
